From patent US20210324039A1 (REMEGEN, published 2021) come the findings set out here.

Several values for one entry are separate records, joined by “and”; a condition that tells them apart may be missing. Equal values may be shown once.

The target of assay [1] is T1, rhVEGF165 (human, UniProt P15692-4 27-191).
T1 sequence (looked up): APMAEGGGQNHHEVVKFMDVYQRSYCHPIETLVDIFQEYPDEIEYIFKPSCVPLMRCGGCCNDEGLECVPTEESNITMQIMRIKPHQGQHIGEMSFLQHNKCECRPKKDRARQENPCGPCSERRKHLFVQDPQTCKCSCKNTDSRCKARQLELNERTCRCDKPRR
The assay can be described thus: cell-based or functional assay.

The target of assay [2] is T2, rhFGF2 (human, UniProt P09038 in part, limits assumed). The assay can be described thus: cell-based or functional assay.
Assay [3] addresses T2, rhFGF2. The assay can be described thus: BLI (ForteBio Octet), fusion protein loaded on the probe at 50 nM, rhFGF 50-400 nM in solution, N=3. On the procedure: (§1) VF28 and RC28-05 were tested for the affinity using ForteBio Octet (PALL). PBS (pH 7.4) was added as a balanced solution to each well of column 1 of the detection plate A-E, and the probe was soaked and activated for 10 min; RC28-05 and VF28 were diluted respectively to a concentration of 50 nM with PBS and added to column 2 of rows A-E of the 96-well assay plate with the program set to Loading for 300 s; PBS was added as a balanced solution to each well of column 3 of rows A-E of the detection plate with the program set to Baseline for 180 s; rhVEGF (R&D) and rhFGF (R&D) were diluted respectively to a concentration of 500 nM and 400 nM using PBS as the diluent, and then serially diluted at 1:2 for three gradients (a total of four gradients) to a concentration of 62.5 nM and 50 nM. The serially diluted samples were added to column 4 of rows A-D of the 96-well plate while the dilution was added to column 4 of row E as a negative control, with the program set to Association for 600 s; PBS was added as the dissociation solution to each well in column 5 of rows A-E with the program set to Dissociation for 1800 s; 10 mM glycine (pH 1.5) and PBS were added as the regeneration solution and the neutralization solution in columns 6 and 7 of rows A-E, respectively, with the programs respectively set to Regeneration and Neutralization for 15 s each, repeating for 5 times. A total of 3 cycles were tested. Data was analysed using Data analysis 7.0 software. The equilibrium constant (KD) value was calculated with the background subtracted using the corresponding unbound rhVEGF/rhFGF sensor as a control.
(Biolayer interferometry detects binding as a change in optical thickness at a sensor tip.)

The target of assay [4] is T1, rhVEGF165. The assay is described as follows: BLI (ForteBio Octet), fusion protein loaded on the probe at 50 nM, rhVEGF 62.5-500 nM in solution, N=3. As for the experimental part:
as §1

Assay [5] deals with VEGF and FGF (the VEGF end and the FGF end; one value from the 'single system analysis', target not stated separately). The assay can be described thus: binding activity analysis, single system analysis, finished product 5 C, 6 months.
Assay [6] has the same target. The assay is described as follows: binding activity analysis, single system analysis, finished product 25 C, 10 days.
Assay [7] has the same target. The assay is described as follows: binding activity analysis, single system analysis, finished product 25 C, 30 days.
Assay [8] has the same target. The assay can be described thus: binding activity analysis, single system analysis, finished product 5 C, 12 months.
Assay [9] has the same target. The assay can be described thus: ELISA, single system analysis, stock solution -80 C, 9 months.
Assay [10] has the same target. The assay is described as follows: ELISA, single system analysis, stock solution -80 C, 6 months. A general note: ELISA stands for enzyme-linked immunosorbent assay.
For assay [11] the target is unchanged. The assay is described as follows: binding activity analysis, single system analysis, finished product 5 C, 9 months.
Assay [12] has the same target. The assay is described as follows: binding activity analysis, single system analysis, finished product 25 C, 20 days.
The target is the same in assay [13]. The assay is described as follows: binding activity analysis, single system analysis, finished product 5 C, 3 months.

T2 sequence (P09038 143-288 limits assumed): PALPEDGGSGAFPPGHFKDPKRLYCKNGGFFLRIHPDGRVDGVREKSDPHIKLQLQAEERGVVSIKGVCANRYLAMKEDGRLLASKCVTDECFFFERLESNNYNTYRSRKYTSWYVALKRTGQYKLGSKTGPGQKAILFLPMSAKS

B1: VF28 (28# fusion protein of CN 201110131029.X) (Fc fusion)
chain: GRPFVEMYSEIPEIIHMTEGRELVIPCRVTSPNITVTLKKFPLDTLIPDGKRIIWDSRKGFIISNATYKEIGLLTCEATVNGHLYKTNYLTHRQTNTIIDVVLSPSHGIELSVGEKLVLNCTARTELNVGIDFNWEYPSSKHQHKKLVNRDLKTQSGSEMKKFLSTLTIDGVTRSDQGLYTCAASSGLMTKKNSTFVRVHEKPNPVAPYWTSPEKMEKKLHAVPAAKTVKFKCPSSGTPNPTLRWLKNGKEFKPDHRIGGYKVRYATWSIIMDSVVPSDKGNYTCIVENEYGSINHTYQLDVVERSPHRPILQAGLPANKTVALGSNVEFMCKVYSDPQPHIQWLKHIEVNGSKIGPDNLPYVQILKTAGVNTTDKEMEVLHLRNVSFEDAGEYTCLAGNSIGLSHHSAWLTVLEALEERPAVMTSPLYLE[human IgG1 Fc omitted]
notes: Earlier VEGFR-FGFR-Fc fusion protein, used as the comparator
For B1, the “IC50 of inhibition of HUVEC cell proliferation stimulated by VEGF165 (CCK-8, 72 h)” value in the assay with rhVEGF165 [1] came to 0.48 nM. The “IC50 of inhibition of HUVEC cell proliferation stimulated by bFGF (CCK-8, 72 h)” value with rhFGF2 [2] worked out at 3.2 nM. In the assay with rhFGF2 [3], the Kd came out at 5.24 nM, the koff worked out at 9.78e-05 s⁻¹ and the kon worked out at 19000 M⁻¹ s⁻¹. Moreover, in the assay with rhVEGF165 [4], the Kd was found to be 0.251 nM, the koff amounted to 6.68e-05 s⁻¹ and the kon amounted to 276000 M⁻¹ s⁻¹.

B2: RC28-05 fusion protein (Fc fusion)
chain: GRPFVEMYSEIPEIIHMTEGRELVIPCRVTSPNITVTLKKFPLDTLIPDGKRIIWDSRKGFIISNATYKEIGLLTCEATVNGHLYKTNYLTHRQTNTIIDVVLSPSHGIELSVGEKLVLNCTARTELNVGIDFNWEYPSSKHQHKKLVNRDLKTQSGSEMKKFLSTLTIDGVTRSDQGLYTCAASSGLMTKKNSTFVRVHEKPVAPYWTSPEKMEKKLHAVPAAKTVKFKCPSSGTPNPTLRWLKNGKEFKPDHRIGGYKVRYATWSIIMDSVVPSDKGNYTCIVENEYGSINHTYQLDVVERSPHRPILQAGLPANKTVALGSNVEFMCKVYSDPQPHIQWLKHIEVNGSKIGPDNLPYVQILKTAGVNTTDKEMEVLHLRNVSFEDAGEYTCLAGNSIGLSHHSAWLTVLEA[human IgG1 Fc omitted]
notes: Expressed in CHO cells
In the case of B2, the Relative binding activity (%) in [5] is 108% and 102% and 98.5%; in assay [6], 109% and 108%; in assay [7] it was 95.7% and 101% and 113%; in [8] it was 119% and 110% and 111%; in assay [9], 115% and 105% and 104%; in assay [10] it was 99.6% and 102%. The Relative binding activity (%) in assay [11] was 105% and 112% and 110%; in assay [12], 104% and 120% and 119%; in [13], 116% and 107%. Besides, in the assay with rhVEGF165 [1], the “IC50 of inhibition of HUVEC cell proliferation stimulated by VEGF165 (CCK-8, 72 h)” value was found to be 0.43 nM. For the same molecule, the “IC50 of inhibition of HUVEC cell proliferation stimulated by bFGF (CCK-8, 72 h)” value in the assay with rhFGF2 [2] came to 1.5 nM. Besides, the Kd with rhFGF2 [3] is 3.28 nM. The koff in the assay with rhFGF2 [3] was 7.96e-05 s⁻¹; with rhVEGF165 [4], 5.65e-05 s⁻¹. Further, the kon was found to be 26600 M⁻¹ s⁻¹ with rhFGF2 [3] and 230000 M⁻¹ s⁻¹ in the assay with rhVEGF165 [4].

The Kd is the free concentration of one partner at which half of the binding sites on the other are occupied at equilibrium, for simple one-to-one binding. The koff is the first-order rate constant of dissociation. The low end stands for slow dissociation, the high end for fast dissociation. As a reminder, the kon is the rate constant with which the complex forms.
